# Measured values taken from the supplement of paper PMC3334620.
# Whole data set: some 33,000 sequences, median “E-score (-0.5 to 0.5)” near -0.036, cut for the highest 2% near 0.37. The list shows a part of the results.
# Biological target: T1, Yer064c (UniProt P40041)
# T1 sequence: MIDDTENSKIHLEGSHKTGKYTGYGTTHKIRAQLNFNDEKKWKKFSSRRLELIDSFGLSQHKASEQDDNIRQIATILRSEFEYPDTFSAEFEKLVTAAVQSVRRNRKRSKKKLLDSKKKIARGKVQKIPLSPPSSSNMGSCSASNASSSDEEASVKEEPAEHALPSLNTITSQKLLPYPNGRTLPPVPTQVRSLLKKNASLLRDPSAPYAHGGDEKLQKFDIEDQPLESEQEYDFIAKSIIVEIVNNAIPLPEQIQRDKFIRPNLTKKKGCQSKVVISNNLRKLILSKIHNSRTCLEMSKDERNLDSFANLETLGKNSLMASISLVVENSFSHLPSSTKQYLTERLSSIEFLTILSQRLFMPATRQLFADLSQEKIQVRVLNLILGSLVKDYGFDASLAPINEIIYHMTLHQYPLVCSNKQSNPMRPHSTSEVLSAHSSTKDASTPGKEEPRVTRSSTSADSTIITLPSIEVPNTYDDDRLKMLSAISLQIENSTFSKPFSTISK
# Assay: PBM E-score (8-mer binding enrichment) (E-score (-0.5 to 0.5)); higher = stronger / more preferred TF binding; most listed sequences are background and not binding sites
# Settings: protein concentration: 200 nM; construct: GST-full length
# Procedure, shortened: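 Universal all-10-mer Agilent arrays, fresh or stripped once, were converted to double-stranded form by primer extension. GST-tagged yeast transcription factors from PURExpress in vitro transcription/translation, full-length or DNA-binding domain only, were applied at about 100-200 nM and detected with fluorescent anti-GST. After masliner normalisation, the Universal PBM Analysis Suite scored each ungapped eight-base word together with its reverse complement by E-score.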
row,Sequence,PBM E-score
1,GAGTACCA,0.252
2,AAACACCT,0.129
3,TATCGTGA,0.0727
4,AGTTCCAT,0.0111
5,AGGTGTAC,-0.0899
6,AAGATGTG,0.0624
7,GGACTACC,0.284
8,ACGCCCAC,-0.131
9,TTAGACAA,-0.00707
10,GGCGTCTA,-0.224
11,GGTTGTGA,0.0869
12,GCGCTGAA,-0.211
13,AAGAAAAA,0.0602
14,ATGACCTG,0.092
15,ATTACTGA,-0.00514
16,CTACTGAG,0.157
17,TCCAAAGA,0.165
18,CCTCAATA,-0.0844
19,CGTTGCGA,-0.0377
20,ACGCACCG,-0.11
21,GATGGATA,0.0115
22,ACCTTACT,0.0671
23,TAAGGCGA,-0.124
24,GTACGTAA,-0.0674
25,AACAGAGT,0.227

row,Sequence,PBM E-score
1,AATGCGAA,-0.0878
2,ATAACTCG,0.0398
3,GTTATAAC,-0.256
4,CCCAAGAA,0.00379
5,AATCCAAT,-0.0757
6,GCCATAAA,-0.184
7,GGTAAACC,-0.227
8,GTCACGCA,0.167
9,CAGCAAGC,-0.198
10,ACTCACTC,0.371
11,CACCACTC,-0.00325
12,ACCACCGG,-0.122
13,GAGCCCCA,-0.0862
14,AATTGAAC,-0.015
15,AGCGGCAA,-0.0935
16,ACTATAGA,0.0966
17,ACCCCTGG,0.0365
18,CCATACAG,0.105
19,AATCCCTC,-0.0606
20,AGCGCGCA,-0.132
21,CGAGCTTC,0.052
22,AGAACCTA,-0.129
23,ATGTCTCG,0.17
24,AAGTTGAA,-0.00081
25,CATTTGCA,-0.0432

row,Sequence,PBM E-score
1,CCATACTC,-0.0158
2,ACCATCTA,-0.191
3,GCCTATGA,0.0271
4,AGTTCAAG,0.129
5,GGTGCATA,-0.146
6,CAAGATCG,-0.0652
7,CTGTGGAA,0.0224
8,CTGTAAGC,-0.0285
9,CACTGGGC,-0.166
10,GCTAATCC,-0.145
11,ATGTAATA,-0.0893
12,TTGAGAAA,0.142
13,GCGGACCA,-0.0691
14,CAAGAGCC,0.00459
15,CTTGAACA,-0.138
16,AAGCCGGA,-0.19
17,AACGTCGC,-0.181
18,CAGGGGAC,-0.0814
19,CGATGGCG,0.0101
20,AATCCGGT,0.0049
21,TATCTGCA,-0.0107
22,ACCTCCCG,-0.268
23,AAATTCTT,-0.126
24,GGCTCCTA,-0.261
25,TACAAGGA,0.0157

row,Sequence,PBM E-score
1,CTTCACCC,-0.0182
2,GTTACGAA,-0.142
3,ACGTGCAA,-0.176
4,GAAACCAC,0.0141
5,CAGCCCGC,0.0809
6,CAAACACG,-0.111
7,GACTAGAC,0.286
8,TGCGCTAA,0.0622
9,GCCGTTCC,-0.225
10,TATCTTGA,0.0512
11,CAGCAAAG,0.00732
12,ATTGGCAG,0.0789
13,ACGCTGCC,-0.129
14,AGTCTCTC,0.3
15,GTCTCGAA,0.0844
16,AAACAATA,0.155
17,CCTAAGCC,-0.208
18,CAAACCAG,-0.101
19,CCCGAACC,-0.186
20,GGTAACAC,0.122
21,GGTCCTGA,-0.0819
22,CCGGTGCG,0.0328
23,CAGTGGTC,0.0376
24,CCTTATAC,-0.0382
25,CAGTCACG,0.413

row,Sequence,PBM E-score
1,CCTGGTAG,-0.295
2,CACACGCA,-0.0706
3,CACACCGG,-0.0864
4,CTGCTGGC,-0.248
5,AAATATTT,0.177
6,ACCGTCCG,-0.319
7,CCACTCTA,0.0684
8,AATTTTCA,-0.0286
9,GACACTCA,0.0855
10,ACAGCTTG,0.0501
11,CTGCCAGA,-0.14
12,ACTCCACT,0.183
13,TAATGCGA,0.0426
14,CTTTCACC,-0.101
15,AGTACACC,0.0591
16,ATATACCG,0.0634
17,CGCAGCTA,0.097
18,TCCTACGA,0.0576
19,TTCCCGAA,-0.226
20,AGTGGGGA,-0.228
21,AAGCTCTC,-0.236
22,AGTTACTC,0.258
23,ACTGTGTA,0.193
24,ATATTTTG,0.101
25,ACGCTATA,-0.146

row,Sequence,PBM E-score
1,CCTTTTAG,0.00296
2,AAATTGAC,0.119
3,ATATATAA,0.0961
4,ATGTCTCA,0.414
5,CCCGTATA,-0.173
6,CCACACTC,-0.0127
7,ACTCTGCT,0.0892
8,ATGCGAGC,-0.21
9,ATACAAAA,0.156
10,GCACGTAC,-0.196
11,ACACTTTC,-0.0867
12,ACAAAGAC,0.201
13,GCTGTGTA,0.108
14,CTCTAAGC,-0.0687
15,CATAGGGA,-0.00985
16,CCCCCTCA,-0.332
17,CCGAATAG,-0.139
18,ACCTAGGC,-0.181
19,CATCAGTC,0.321
20,ACGTGGAT,-0.0488
21,ACCCCAAC,-0.0468
22,ACGCAGTG,-0.0716
23,ATGTACAA,-0.165
24,ACGGTACC,-0.12
25,ACAATATA,-0.0177

row,Sequence,PBM E-score
1,CTCCAGTA,0.0727
2,CTATGCAA,-0.0674
3,CGCTCCTC,-0.18
4,ACTGCCAT,0.0149
5,TAACCAGA,0.0739
6,ACCGGGAT,-0.146
7,ACCCTACG,-0.0986
8,AGTCATAC,0.486
9,CGTTCCGA,-0.059
10,GCACATCC,-0.099
11,GGGAGGCA,-0.0617
12,ATCCTCTC,-0.0686
13,GTCGCAAA,0.0577
14,CGTACCCC,-0.0666
15,AGGCTGTA,0.0748
16,ACAAAGAT,0.101
17,ACATTATC,-0.0242
18,AATTCCTA,0.199
19,CTAGGCAG,-0.0118
20,ACATGGAA,-0.126
21,ACACCGGT,-0.114
22,GAGTCACA,0.493
